From PubChem BioAssay AID1508624 (National Center for Advancing Translational Sciences (NCATS), 2021)
The whole screen tested about 48,000 compounds, of which about 120 (0.25%) were called active. Inconclusive results (about 4%) are left out. Calls come from the whole dose curve; as a rule, active = well fitted activation curve with a large enough effect; inconclusive = small, poorly fitted or top-dose-only effect, or another doubt; inactive = no such curve, though single readings can be large or run the other way. The list shows a part of the results.

Assay: Primary qHTS for Identification of Small Molecule Activators of Huntingtin-Antisense Promoter Activity; note: nearly all actives have a fitted effect of over 55% in size
Settings: HEK293 HTT-AS promoter firefly luciferase reporter (activity 0% = vehicle and -100% = no light), 24 h; series mostly up to 57.5 µM; activity change, positive = activation: at the top concentration
In short: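 HEK293 Fluc reporter, 2,500 cells/well, 24 h pre-culture; cpds up to 57.5 uM final, 24 h 37 degrees C; Dual-Glo, 10 min RT; normalized vehicle = 0%, zero RLU = -100%.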

Activity change, positive = activation, inactive:
CN1C(=O)C2CCCCN2c2ccc(C(=O)NCc3ccccc3Br)cc21 (configuration not stated) -19.2%
CCOC(=O)c1c(C)c(C(=O)NCCc2ccc(OC)cc2)c(C)n1CC -13.3%
CC(=O)c1c(C)n(-c2cccc(C)c2)c2ccc(OC(=O)COc3ccccc3)cc12 -19.3%
COc1cccc(-c2cc(C(=O)NCCc3ccc(C)cc3)[nH]n2)c1 2.67%
Cc1ccc(NS(=O)(=O)c2c(C(=O)N3CCCCCC3)c(C)n(C)c2C)cc1F -6.32%
O=C(Nc1ccc(Br)cc1)c1ccc(Br)c(S(=O)(=O)NCc2ccccc2)c1 -39.1%
CCOc1ccc(CNC(=O)Cn2nc(C)c3sc4ccccc4c3c2=O)cc1 -7.56%
O=c1n(Cc2ccc(F)cc2Cl)c2ccccc2c2nc(-c3ccccc3)nn12 -4.38%
COc1ccc2c(c1)CCc1c(C(=O)Nc3c(C)nn(Cc4ccccc4Cl)c3C)noc1-2 -37.1%
CCCCN(CC)CCCNC(=O)c1cn(CC(C)C)c(=O)c2c1c1ccccc1n2C -12.4%
Cn1c(=O)c2c(nc(NCCc3ccccc3)n2Cc2cccc(Br)c2)n(C)c1=O -27.1%
Cc1ccc(CCNC(=O)c2nnc(Cc3cccc(F)c3)o2)cc1 -11.2%
COc1ccc(-c2cn3nc(N4CCCC(C(=O)Nc5ccc(Cl)cc5C)C4)sc3n2)cc1 (configuration not stated) -2.86%
CC1Cc2ccccc2N1S(=O)(=O)c1nnc(NC(=O)c2ccccc2Br)s1 (configuration not stated) -32.3%
CC(C)Oc1ccc(C(=O)Nc2ccc3oc(-c4ccncc4)nc3c2)cc1 -27.1%
COc1ccc(S(=O)(=O)NCC(c2cccs2)S(=O)(=O)c2ccc(C)cc2)cc1F (configuration not stated) -15.1%
Cc1[nH]c2ccc(F)cc2c1CCNC(=O)c1cc2cc(Cl)ccc2oc1=O -10.7%
COc1cc(NC(=O)C(NC(=O)C2CCC(C)CC2)C(C)C)cc(OC)c1OC (configuration not stated) 14.7%
COc1ccc(Cl)cc1NS(=O)(=O)c1c(C)nc2scc(C)n2c1=O -3.46%
COCCn1c(CNC(=O)c2cc([N+](=O)[O-])ccc2Cl)nc2cccnc21 -10%
Cc1ccc(CNC(=O)c2c[nH]c3ccc(S(=O)(=O)Nc4ccc(C(C)C)cc4)cc3c2=O)cc1 -22%
O=C(NC1(C(F)(F)F)NC(=O)N(CCc2ccccc2)C1=O)c1ccccc1F (configuration not stated) 3.35%
COc1cccc(CSc2nc3cc(OC)c(OC)cc3c3nc(CCn4nc(C)cc4C)nn23)c1 0.717%
COC(=O)c1cc2sc(C)cc2n1Cc1ccc(F)cc1Cl -2.16%
CCOc1ccc2nc(N(Cc3cccnc3)C(=O)c3ccc4c(c3)OCCO4)sc2c1 8.63%
COc1ccccc1CNC(=O)Cn1c(=O)ccc2cc(S(=O)(=O)N3CCC(C)CC3)ccc21 -7.15%
O=S(=O)(c1ccc(Cl)cc1)c1nc(-c2ccccc2Br)oc1N1CCOCC1 -32.7%
